{"source": "patent US20100047166A1", "about": "“ANTIBODIES AND RELATED MOLECULES THAT BIND TO 58P1D12 PROTEINS” (priority 2008, published 2010)", "molecules": {"B1": {"name": "recombinant antibody: recombinant monoclonal antibody secreted from CHO cells transfected with the sequence from clone 1-B3 and Ha8-4c4.1 VH (antibody, V domains shown)", "VH": "QVQLQESGPGLVKPSETLSLTCTVSGGSVSSGGYYWSWIRQPPGKGLEWIGYIYYSGGTNYNPSLKSRVTISVDTSKNQFSLKLTSVTAADTAVYYCARESGYCTNVACFPDAFDIWGQGTMVTVSS", "VL": "DIVMTQSPDSLAVSLGERATINCKSSQGVLYSSNNKNYLAWYQQKPGQPPKLLIYWASTRESGVPDRFSGSGSGTDFTLTISSLQAEDVAVYFCQQYYVSPLTFGGGTKVEIKR"}}, "target": "T1, 58P1D12 protein (Homo sapiens, UniProt Q9H9P2)", "T1 sequence (Q9H9P2 22-273)": "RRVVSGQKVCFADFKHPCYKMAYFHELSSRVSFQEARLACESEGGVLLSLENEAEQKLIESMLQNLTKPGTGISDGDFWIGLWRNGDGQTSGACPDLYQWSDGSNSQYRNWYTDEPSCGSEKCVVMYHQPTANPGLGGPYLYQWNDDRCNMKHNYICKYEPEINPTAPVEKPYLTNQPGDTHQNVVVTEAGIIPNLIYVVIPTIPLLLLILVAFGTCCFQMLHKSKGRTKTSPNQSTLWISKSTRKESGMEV", "assay": "Binding of CHO-expressed recombinant antibody to 58P1D12 protein", "settings": "antibody secreted from CHO cells", "source_text": "The 1-B3 and 2-A7 expression vectors were co-transfected with constant and heavy chain sequences to permit the assembly of recombinant monoclonal antibodies. […] The inability of the 2-A7 sequence to support the recombinant expression of monoclonal antibodies taken with the molecular weight data discussed above implies that the 2-A7 light chain is not processed to remove the leader sequence. If this hypothesis is correct, the 2-A7 light chain retaining the leader sequence might explain the lack of secretion of a properly assembled monoclonal antibody."}
{"molecule": "B1", "values": [{"measurement": "binding affinity to 58P1D12 protein relative to hybridoma-secreted monoclonal antibodies", "value": "same affinity"}]}
